In PMC10190621:
These are yes or no findings as the source states them, for the method shown. For some of these results: Binding seen in cells or lysates may run through a third protein. Some binding calls cover weakened binding; strength is not graded here. Tags and fused reporters may be left off the sequences shown. Blank lines part the entries; values can stand above or below the substance they belong to.

Amino acid sequences for entries named in this document (tags omitted). A change or cut given only in a name is not applied to a line headed by its entry.
UniProt Q14145: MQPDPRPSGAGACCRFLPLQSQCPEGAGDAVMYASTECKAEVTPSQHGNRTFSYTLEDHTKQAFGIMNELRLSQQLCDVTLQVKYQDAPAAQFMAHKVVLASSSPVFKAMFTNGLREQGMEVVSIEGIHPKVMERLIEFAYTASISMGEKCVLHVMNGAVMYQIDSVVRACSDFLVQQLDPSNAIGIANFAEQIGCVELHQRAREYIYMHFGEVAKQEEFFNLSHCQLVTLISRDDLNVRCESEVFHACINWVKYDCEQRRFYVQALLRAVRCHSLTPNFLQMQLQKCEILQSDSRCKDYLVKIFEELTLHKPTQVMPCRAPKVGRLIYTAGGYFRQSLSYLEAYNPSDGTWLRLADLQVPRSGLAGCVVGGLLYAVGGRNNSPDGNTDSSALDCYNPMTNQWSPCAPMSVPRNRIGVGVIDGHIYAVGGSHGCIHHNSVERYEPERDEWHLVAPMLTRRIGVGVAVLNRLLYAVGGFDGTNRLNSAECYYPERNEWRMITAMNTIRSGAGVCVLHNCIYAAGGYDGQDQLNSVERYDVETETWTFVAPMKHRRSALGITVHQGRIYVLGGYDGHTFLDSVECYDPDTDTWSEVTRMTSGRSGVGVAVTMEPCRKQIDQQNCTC
UniProt P61960: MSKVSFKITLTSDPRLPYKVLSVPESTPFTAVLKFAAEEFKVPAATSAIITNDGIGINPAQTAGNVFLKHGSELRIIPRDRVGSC

How the values were obtained:
[1] = target: T1, Myc-tagged DDRGK1 (human) (UniProt Q96HY6); assay: co-IP; two tagged proteins co-transfected into HEK293T cells; cell lysis buffer with protease inhibitor; anti-Myc, anti-Flag or anti-HA immunomagnetic beads, 4 °C overnight, washed three times; western blot
T1 sequence: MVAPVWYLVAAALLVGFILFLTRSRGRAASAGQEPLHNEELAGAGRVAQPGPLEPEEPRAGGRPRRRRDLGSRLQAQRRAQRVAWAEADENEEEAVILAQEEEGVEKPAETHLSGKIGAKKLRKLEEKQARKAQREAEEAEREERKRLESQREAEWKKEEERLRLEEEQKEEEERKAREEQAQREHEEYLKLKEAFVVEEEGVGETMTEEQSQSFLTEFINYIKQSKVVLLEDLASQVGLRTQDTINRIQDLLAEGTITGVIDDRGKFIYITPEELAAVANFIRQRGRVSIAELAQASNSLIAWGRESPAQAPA

[2] = target: T2, FLAG-tagged DDRGK1 (human) (UniProt Q96HY6); assay: as above
T2 sequence: T1 sequence

[3] = target: T3, Fc-tagged DDRGK1 (full length) (human) (UniProt Q96HY6); assay: pull-down; Fc pulldown: 10 µg purified Fc or Fc-DDRGK1 on Protein A/G immunomagnetic beads (room temperature 0.5 h), mixed with recombinant NRF2 and KEAP1 proteins at 4 °C overnight, washed three times, immunoblot; both purified
T3 sequence: T1 sequence

[4] = target: T1, Myc-tagged DDRGK1 (human); assay: co-IP; one tagged protein transfected into HEK293T cells as bait, endogenous proteins as prey; anti-Myc, anti-HA or anti-Flag immunomagnetic beads, 4 °C overnight; western blot with antibodies to the endogenous proteins
[5] = target: T4, DDRGK1-Flag truncation, amino acids 1-210 (human) (UniProt Q96HY6); assay: as above
T4 sequence: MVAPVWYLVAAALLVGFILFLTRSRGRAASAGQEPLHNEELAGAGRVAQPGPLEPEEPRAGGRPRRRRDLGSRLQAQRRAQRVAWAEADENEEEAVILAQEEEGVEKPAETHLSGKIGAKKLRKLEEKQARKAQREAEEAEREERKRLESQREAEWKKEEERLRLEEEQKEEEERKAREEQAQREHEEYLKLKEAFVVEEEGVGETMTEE

[6] = target: T5, HA-tagged NRF2 (UniProt Q16236); assay: co-IP; two tagged proteins co-transfected into HEK293T cells; cell lysis buffer with protease inhibitor; anti-Myc, anti-Flag or anti-HA immunomagnetic beads, 4 °C overnight, washed three times; western blot
T5 sequence: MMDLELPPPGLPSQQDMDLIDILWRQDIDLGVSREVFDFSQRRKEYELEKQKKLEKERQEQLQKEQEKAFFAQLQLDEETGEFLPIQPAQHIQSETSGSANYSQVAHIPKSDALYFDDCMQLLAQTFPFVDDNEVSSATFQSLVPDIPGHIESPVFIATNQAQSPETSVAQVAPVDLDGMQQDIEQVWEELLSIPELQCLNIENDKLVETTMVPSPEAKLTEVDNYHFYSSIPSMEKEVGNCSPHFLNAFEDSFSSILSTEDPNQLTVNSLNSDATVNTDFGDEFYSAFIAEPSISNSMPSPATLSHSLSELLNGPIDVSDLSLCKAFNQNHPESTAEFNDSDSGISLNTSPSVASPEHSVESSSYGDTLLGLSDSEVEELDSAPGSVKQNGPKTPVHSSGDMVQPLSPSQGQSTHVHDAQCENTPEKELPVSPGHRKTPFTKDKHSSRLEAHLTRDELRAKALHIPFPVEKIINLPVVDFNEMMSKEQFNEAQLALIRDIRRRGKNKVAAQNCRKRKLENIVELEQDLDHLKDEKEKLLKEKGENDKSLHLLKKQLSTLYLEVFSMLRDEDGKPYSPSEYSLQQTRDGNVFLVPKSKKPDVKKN

Substance: HA-tagged NRF2 (from UniProt Q16236 1-605)
binding [2]: no binding

Substance: endogenous KEAP1 (from UniProt Q14145 1-624)
binding [4]: binds
binding [5]: binds

Substance: endogenous NRF2 (from UniProt Q16236 1-605)
binding [4]: no binding

Next, values leading:

binding [1]: binds
Substance: HA-tagged KEAP1 (from UniProt Q14145 1-624)

binding [3]: binds
Substance: His-tagged KEAP1 (C-terminal amino acids 312-624, containing the Kelch domain) (from UniProt Q14145 312-624) (domain or fragment)

binding [6]: no binding
Substance: ufm1-HA (from UniProt P61960 1-85)
